PubChem BioAssay AID1645886 (National Center for Advancing Translational Sciences (NCATS), 2021)
Several values for one entry are separate records, joined by “and”; a condition that tells them apart may be missing. Identical values can stand only once. Among all 16,000 compounds or so, about 260 (1.6%) were called active. Inconclusive means that the source gave no clear call. Such entries were picked first, then a sample of the others. The call rests on the fitted dose curve; in most records, active means well fitted inhibition curve with a large enough effect; inconclusive means small, poorly fitted or top-dose-only effect; inactive means no such curve, though single readings can be large or run the other way. Where the call is inconclusive, the potency comes from a doubtful curve fit.

These molecules were tested against Rap guanine nucleotide exchange factor 4 (Homo sapiens) (UniProt Q8WZA2) (assay: Validation qHTS for antagonist of cAMP-regulated guanine nucleotide exchange factor 4 (EPAC2)). Conditions: EPAC2 Rap1B BODIPY-GDP exchange, fluorescence; activity, negative = inhibition: at 112 µM (top of the series).
In short: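 Normalized against a 6.5 mM cAMP agonist control, compounds were tested on 100 nM EPAC2 exchanging Rap1B-bound BODIPY-GDP (250 nM) for 50 uM GDP. Fluorescence drop (ex 480, em 540 nm) was tracked at room temperature over 30 min at 5-min intervals.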
Further: nearly all actives have a fitted effect of over 40% in size.
Potency means the concentration at half of the fitted maximal effect; tags describe the fitted curve by direction and shape.

Chain of UniProt Q8WZA2 (Q8WZA2 whole entry, looked up): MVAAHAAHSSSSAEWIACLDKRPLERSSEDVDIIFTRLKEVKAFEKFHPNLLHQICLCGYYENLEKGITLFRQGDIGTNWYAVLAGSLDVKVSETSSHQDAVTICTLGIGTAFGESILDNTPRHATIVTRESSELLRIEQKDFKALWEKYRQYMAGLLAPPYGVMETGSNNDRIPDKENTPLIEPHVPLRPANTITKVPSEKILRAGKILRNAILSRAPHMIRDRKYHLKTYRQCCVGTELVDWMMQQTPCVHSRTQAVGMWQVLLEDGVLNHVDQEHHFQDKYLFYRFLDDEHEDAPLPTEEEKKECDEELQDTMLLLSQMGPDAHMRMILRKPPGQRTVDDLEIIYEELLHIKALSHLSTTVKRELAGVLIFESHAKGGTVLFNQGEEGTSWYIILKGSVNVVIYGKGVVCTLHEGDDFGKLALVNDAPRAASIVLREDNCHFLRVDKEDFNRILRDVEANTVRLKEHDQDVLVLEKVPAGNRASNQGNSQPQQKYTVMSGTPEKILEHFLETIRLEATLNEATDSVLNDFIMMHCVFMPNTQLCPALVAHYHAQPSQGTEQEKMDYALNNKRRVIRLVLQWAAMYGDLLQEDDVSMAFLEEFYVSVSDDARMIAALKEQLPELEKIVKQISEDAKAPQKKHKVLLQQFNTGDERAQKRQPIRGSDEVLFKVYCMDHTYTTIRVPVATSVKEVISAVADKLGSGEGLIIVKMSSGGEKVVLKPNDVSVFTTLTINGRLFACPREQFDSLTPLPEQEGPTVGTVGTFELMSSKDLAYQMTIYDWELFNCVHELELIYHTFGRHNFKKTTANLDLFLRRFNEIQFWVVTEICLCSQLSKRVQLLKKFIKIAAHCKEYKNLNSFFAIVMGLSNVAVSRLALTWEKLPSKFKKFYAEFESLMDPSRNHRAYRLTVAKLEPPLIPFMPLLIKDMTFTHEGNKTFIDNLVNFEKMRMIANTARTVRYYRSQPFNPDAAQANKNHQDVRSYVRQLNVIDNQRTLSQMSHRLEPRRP

| Compound | Potency | activity, negative = inhibition |
| --- | --- | --- |
| COc1cc(-c2ccc(Cl)cn2)cc2c1OCCN(C(=O)c1ccccc1-n1cccn1)C2 | inconclusive: 63.1 µM [inhibitor, single point] |  |
| CC(C)[C@H](CO)Nc1nc(Nc2cc(N)cc(Cl)c2)c2ncn(C(C)C)c2n1 | inconclusive: 79.4 µM [inhibitor, partial curve] |  |
| COc1cc2c(c(OC)c1OC)-c1ccc(OC)c(=O)cc1[C@@H](NC(C)=O)CC2 | inconclusive: 100 µM [inhibitor, single point] |  |
| O=C(c1ccco1)N1CCC2(CC1)CN(c1cccc(-c3ccccc3)c1)C2 | inconclusive: 63.1 µM [inhibitor, partial curve, poor fit] |  |
| COc1ccc(C(=O)Oc2ccc3c(-c4ccc(OC)cc4)cc(=O)oc3c2)cc1 |  | inactive: 21.4% |
| O=S1(=O)CCOC[C@H](c2ccccc2)N1Cc1ccc(F)cc1 | inconclusive: 0.355 µM [inhibitor, full curve, poor fit] |  |
| COc1ccc(CCNc2ncnc3sc(C(=O)N4CCCCC4)c(C)c23)cc1OC |  | inactive: -6.09% |
| O=C(c1csnn1)N1CCC2(CCN(Cc3cc(C(F)(F)F)cc(C(F)(F)F)c3)CC2)CC1 | inconclusive: 44.7 µM [inhibitor, partial curve, poor fit] |  |
| COc1cc(C[C@H]2C(=O)OC[C@@H]2Cc2ccc(OC)c(OC)c2)ccc1O | inconclusive: 100 µM [inhibitor, partial curve, poor fit] |  |
| COc1ccc(Oc2ncc3ncc(=O)n(C[C@H]4CCCO4)c3n2)cc1 |  | inconclusive: -30.4% [inhibitor] |
| CCC1(C2CCN(Cc3ccc(C)s3)CC2)NC(=O)N(CC2COc3ccccc3O2)C1=O (stereo not given) | inconclusive: 100 µM [inhibitor, single point] |  |
| Cc1cccc(CNC(=O)c2cnn(-c3nccc(-c4cc5ccccc5o4)n3)c2C2CC2)n1 | inconclusive: 79.4 µM [inhibitor, partial curve, poor fit] |  |
| CCCNC(=O)N1N=C(c2ccc(N)cc2)c2cc3c(cc2[C@H]1C)OCO3 | inconclusive: 56.2 µM [inhibitor, partial curve, poor fit] |  |
| C#C[C@]1(O)CC[C@H]2[C@H]3CCC4=Cc5oncc5C[C@]4(C)[C@@H]3CC[C@]21C | inconclusive: 56.2 µM [inhibitor, partial curve, poor fit] |  |
| N#Cc1ccc(CN2CCC3(CC2)CCN(C(=O)c2cc(C(F)(F)F)cc(C(F)(F)F)c2)CC3)cc1 | inconclusive: 50.1 µM [inhibitor, partial curve, poor fit] |  |
| CC[C@H](C)N(C)C(=O)c1cc2ccccc2c(-c2ccccc2Cl)n1 | inconclusive: 56.2 µM [inhibitor, partial curve] |  |
| O=c1c(-c2ccc(F)cc2)nc2cnc(Nc3ccccc3)nc2n1Cc1cccs1 | inconclusive: 89.1 µM [inhibitor, single point] |  |
| CC(O)(COc1ccccc1)c1ccc2c(c1)CN(Cc1cccn1-c1ccccn1)CCO2 (stereo not given) |  | inactive: -15.9% |
| COc1cc(N)c(Cl)cc1C(=O)NC1CCN(CCCOc2ccc(F)cc2)CC1OC (stereo not given) | inconclusive: 22.4 µM [inhibitor, partial curve, poor fit] |  |
| C[C@H]1C[C@H]2[C@@H]3CCC4=CC(=O)C=C[C@]4(C)[C@@]3(F)[C@@H](O)C[C@]2(C)[C@@]1(O)C(=O)CCl | inconclusive: 39.8 µM [inhibitor, full curve, poor fit] |  |
| Cn1cc(-c2nc3cnc(N4CCOCC4)nc3n(CCC#N)c2=O)c2ccccc21 |  | inactive: 12.2% |
| CC(C)(C)c1cc(/C=C(\C#N)C(N)=S)cc(C(C)(C)C)c1O | inconclusive: 70.8 µM [inhibitor, single point] and inconclusive: 100 µM [inhibitor, partial curve, poor fit] and inconclusive: 89.1 µM [inhibitor, single point] |  |
| COc1ccc(SC[C@H](C)CN2CC[C@H](C(C)(C)C)CCC2=O)cc1 | inconclusive: 14.1 µM [inhibitor, partial curve] |  |
| COc1ccc(-c2coc3cc(O)cc(O)c3c2=O)cc1 | inconclusive: 50.1 µM [inhibitor, single point] |  |
| COc1ccc(-n2ccc(-c3sc(NCc4cc(OC)c5c(c4)OCO5)nc3C)n2)cc1 | inconclusive: 100 µM [inhibitor, partial curve, poor fit] |  |

| Compound | Potency | activity, negative = inhibition |
| --- | --- | --- |
| O=C(NCC1Cc2cc(F)cc(-c3cccnc3)c2O1)c1cnn(-c2ccccc2)c1 (stereo not given) | inconclusive: 15.8 µM [inhibitor, partial curve, poor fit] |  |
| CCC(O)CNC(=O)c1cnn(-c2ncc3c(n2)-c2ccc(OC)cc2CC3)c1C1CC1 (stereo not given) | inconclusive: 1 µM [inhibitor, full curve, poor fit] |  |
| COCc1c(C(=O)N2CCN(C(C)C)CC2)cnn1-c1nccc(-c2cc(C)sc2C)n1 | inconclusive: 20 µM [inhibitor, single point] |  |
| COc1ccc(CC(=O)c2ccc(O)cc2O)cc1 | inconclusive: 3.98 µM [inhibitor, full curve, poor fit] |  |
| COc1cccc(Cn2c(=O)c(-c3cn(C)c4ccccc34)nc3cnc(N4CCNCC4)nc32)c1 | active: 79.4 µM |  |
| CCOC(=O)c1ccc(O)cc1 | inconclusive: 89.1 µM [inhibitor, single point] |  |
| Cc1ccc(C(=O)N(Cc2cc3cc4c(cc3nc2N2CCOCC2)CCC4)CC2CCCO2)cc1 (stereo not given) | inconclusive: 10 µM [inhibitor, full curve, poor fit] |  |
| O=C(O)c1ccccc1Nc1cccc(OCc2ccc3ccccc3n2)c1 | inactive |  |
| CC(=O)NCCc1c(Cc2ccccc2)[nH]c2ccccc12 | inconclusive: 79.4 µM [inhibitor, partial curve] |  |
| CC(=O)c1ccc(C(=O)NCc2nc(-c3ccccc3NC(=O)c3cc(C)oc3C)oc2C)cc1 | inconclusive: 44.7 µM [inhibitor, single point] |  |
| O=C(COCCOCCOCC(=O)Nc1c(I)cc(I)c(C(=O)O)c1I)Nc1c(I)cc(I)c(C(=O)O)c1I | inconclusive: 5.01 µM [inhibitor, partial curve, poor fit] |  |
| Cn1c(=O)c2[nH]c(Br)nc2n(C)c1=O |  | inactive: 4.1% |
| COc1ccc(N2C(=O)[C@@H]3C[C@H]2CN3Cc2cccn2-c2ccc(Cl)cn2)c(C)c1 | inconclusive: 89.1 µM [inhibitor, single point] |  |
| COc1cc(/C(=C/c2ccccc2)c2ccccc2)c2c(c1)oc1ccccc12 | inconclusive: 79.4 µM [inhibitor, partial curve, poor fit] |  |
| COc1ccccc1N1CCN(c2nc(CNC(=O)C3CC34CCCC4)nc3ccccc23)CC1 (stereo not given) | inconclusive: 63.1 µM [inhibitor, partial curve, poor fit] |  |
| CCCCC[C@H](O)CC(=O)CCc1ccc(O)c(OC)c1 | inactive |  |
| Cc1nc2cnc(Oc3ccccc3)nc2n(-c2ccccc2)c1=O | inconclusive: 50.1 µM [inhibitor, partial curve] |  |
| CCOC(=O)C[C@H]1c2ccccc2S(=O)(=O)N1Cc1cc(OC)c(OC)c(OC)c1 |  | inactive: 10.7% |
| Cc1cccnc1-c1cccc2c1OC(CNC(=O)C(=O)c1ccccc1)C2 (stereo not given) | inconclusive: 2.51 µM [inhibitor, full curve, poor fit] |  |
| [N-]=[N+]=Nc1ccc(C(=O)CSC[C@H](NC(=O)CC[C@H](N)C(=O)O)C(=O)NCC(=O)O)cc1 | inconclusive: 15.8 µM [inhibitor, partial curve] |  |
| O=C(/C=C/c1ccccc1)c1ccc(O)cc1O | inconclusive: 79.4 µM [inhibitor, single point] |  |
| O=C(c1csnn1)N1CCC[C@@]2(CCN(C(c3ccccc3)c3ccccc3)C2)C1 | inconclusive: 31.6 µM [inhibitor, partial curve, poor fit] |  |
| O=C(c1cccnc1)C1CCCN(Cc2ccc3c(c2)CN(C(=O)c2cn4ccccc4n2)CCO3)C1 (stereo not given) | inconclusive: 79.4 µM [inhibitor, partial curve, poor fit] |  |
| O=C1c2ccccc2C(Cc2ccncc2)(Cc2ccncc2)c2ccccc21 | inconclusive: 63.1 µM [inhibitor, partial curve, poor fit] |  |
| O=C1CCc2c(ccc3ccccc23)O1 | inconclusive: 50.1 µM [inhibitor, partial curve] |  |
